# Measured values from PubChem BioAssay AID485294 (National Center for Advancing Translational Sciences (NCATS), 2010).
# Screen size: about 370,000 compounds; about 150 (0.041%) were called active. This list was built around the results that the source calls inconclusive (neither active nor inactive); the mix of calls is not that of the screen. Calls come from the whole dose curve; as a rule, active = well fitted inhibition curve with a large enough effect; inconclusive = small, poorly fitted or top-dose-only effect; inactive = flat fitted curve, though single readings scatter. Potencies of inconclusive entries are left out as doubtful fits.
# Molecular target: Beta-lactamase (Escherichia coli (strain K12)) (UniProt P00811)
# Sequence of UniProt P00811 (P00811 whole entry, looked up): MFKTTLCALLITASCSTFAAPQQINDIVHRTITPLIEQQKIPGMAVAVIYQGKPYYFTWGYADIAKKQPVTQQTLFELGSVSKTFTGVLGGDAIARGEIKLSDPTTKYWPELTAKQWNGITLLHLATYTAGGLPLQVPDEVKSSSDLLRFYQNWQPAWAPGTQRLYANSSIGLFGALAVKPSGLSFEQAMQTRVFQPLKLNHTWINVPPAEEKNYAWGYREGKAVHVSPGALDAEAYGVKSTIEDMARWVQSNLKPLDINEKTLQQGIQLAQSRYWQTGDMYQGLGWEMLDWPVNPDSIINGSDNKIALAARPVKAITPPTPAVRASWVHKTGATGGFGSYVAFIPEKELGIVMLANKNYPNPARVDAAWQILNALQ
# Test: qHTS Inhibitors of AmpC Beta-Lactamase (assay with detergent); note: nearly all actives have a fitted effect of over 25% in size
# Conditions: AmpC hydrolysis of nitrocefin, absorbance 480 nm, 0.01% Triton; series mostly up to 114 µM
# In short: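 AmpC (5.3 nM in the dispensed reagent) in 20 mM phosphate pH 7.0 with 0.01% (detergent screen) or 0.0001% Triton X-100 was preincubated with compounds for 15 min at room temperature. Nitrocefin was then added from an 800 uM solution, and hydrolysis was followed at 480 nm.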
# Potency is the fitted concentration of half-maximal effect; tags give direction and shape of the fitted curve.
row,SMILES,Potency
1,CCc1ccc(OC)c(S(=O)(=O)Nc2ccc(Cc3ccncc3)cc2)c1,inactive
2,CCCC/C(C)=N/NC(=O)c1cn(-c2ccccc2)nc1-c1ccccc1,"inconclusive [inhibitor, full curve, poor fit]"
3,CCN(CC1COc2ccccc2O1)C(=S)NC1CC2CCC1C2 (stereo not given),"inconclusive [inhibitor, full curve, poor fit]"
4,CC(C)Cn1c(=O)c(C(=O)NCc2ccc3c(c2)OCO3)c(O)c2ccccc21,inactive
5,Cc1cc(O)c(-c2cc(C(=O)Nc3ccc(S(=O)(=O)N4CCOCC4)cc3)[nH]n2)cc1C,inactive
6,COc1ccc(CCNC(=O)c2nc(SCc3ccc(C)cc3)ncc2Cl)cc1OC,inactive
7,CCN(CC(=O)NC1CCS(=O)(=O)C1)S(=O)(=O)c1ccc(Cl)cc1C(F)(F)F (stereo not given),"inconclusive [inhibitor, partial curve]"
8,CCCC(C)C(=O)N(Cc1ccccc1)c1ccccn1 (stereo not given),"inconclusive [inhibitor, single point]"
9,CC(C)(C)c1ccc(OC(=O)CN2C(=O)C3C4CCC(C4)C3C2=O)cc1 (stereo not given),"inconclusive [inhibitor, partial curve, poor fit]"
10,CC1=NC(=O)C(N=Nc2cccc(O)c2)N1c1ccccc1 (stereo not given),"inconclusive [inhibitor, single point]"
11,COc1ccccc1OCCCCn1c(-c2ccc(Cl)cc2)nc2ccccc2c1=O,inactive
12,Cn1cc(CN2CCCC(C(=O)c3ccc(-c4ccccc4)c(F)c3)C2)cn1 (stereo not given),inactive
13,O=C1NC(c2cn(-c3ccccc3)nc2-c2cccs2)C(C(=O)c2cccnc2)C(O)(C(F)(F)F)N1 (stereo not given),"inconclusive [inhibitor, full curve, poor fit]"
14,CCN(CCCNC(=O)Cn1ncc2c(=O)oc3ccccc3c21)c1cccc(C)c1,inactive
15,O=C1CN(c2ccccc2F)C(=O)CN1c1ccccc1F,"inconclusive [inhibitor, single point]"
16,CC(C)Cn1c(N)c(C(=O)CCl)c(=O)n(C)c1=O,inactive
17,Cc1c(C(=O)N/N=C/c2ccoc2)cccc1[N+](=O)[O-],"inconclusive [inhibitor, full curve, poor fit]"
18,CCC(C)NC(=O)c1ccc(CS(=O)(=O)Cc2ccc(Cl)cc2)o1 (stereo not given),"inconclusive [inhibitor, single point]"
19,O=C(Cn1cnc2c(cnn2-c2ccc(F)cc2)c1=O)N1CCN(c2ccccc2F)CC1,"inconclusive [inhibitor, full curve, poor fit]"
20,COc1cc(-c2cc(C(=O)Nc3cc(S(=O)(=O)N4CCOCC4)ccc3C)c3ccccc3n2)cc(OC)c1OC,inactive
21,CCCCN1C=C(C(=O)OC)C(c2ccccc2C(F)(F)F)C(C(=O)OC)=C1,"inconclusive [inhibitor, single point]"
22,O=C(CN(c1cccc([N+](=O)[O-])c1)S(=O)(=O)c1ccccc1)N1CCCCC1,inactive
23,CCN(CC(=O)Nc1c(F)cccc1F)C(=O)/C=C/c1ccc(C)cc1,"inconclusive [inhibitor, full curve, poor fit]"
24,O=C(Cn1c(=O)n(Cc2ccco2)c(=O)c2ccccc21)Nc1cccc(Cl)c1,"inconclusive [inhibitor, full curve]"

row,SMILES,Potency
1,CCN1CCc2nc(NC(=O)Cc3ccc4c(c3)OCCO4)sc2C1,inactive
2,O=C(CCS(=O)(=O)c1ccc(Cl)cc1)N1CCN(c2ccccc2F)CC1,"inconclusive [inhibitor, full curve, poor fit]"
3,Cc1cc(C)n(CCC(=O)N/N=C/c2ccccc2O)n1,inactive
4,CCCN(CCC)CCNC(=O)c1cc2c(=O)n(C)c3ccccc3c2n1C,"inconclusive [inhibitor, full curve, poor fit]"
5,CCCCCCCCn1cnc2c(N)c(C)c(C)cc21,"inconclusive [inhibitor, partial curve, poor fit]"
6,Cc1nc2cc(NC(=O)c3cccc(S(C)(=O)=O)c3)ccc2o1,inactive
7,CC1CC(=O)c2cnc(NCc3ccco3)nc2C1 (stereo not given),"inconclusive [inhibitor, full curve, poor fit]"
8,CCN(CC)C(=O)Oc1ccc2c(c1)O/C(=C\c1ccco1)C2=O,inactive
9,O=C(OCC(=O)N1CCN(C(=O)c2ccco2)CC1)c1cc(-c2ccc(F)cc2)nc2ccccc12,"inconclusive [inhibitor, full curve, poor fit]"
10,NC(=O)c1c(NC(=O)c2cccs2)sc2c1CCCCCC2,inactive
11,Cc1ccc(S(=O)(=O)N2CCN(C(=O)c3cc4c(s3)CCCC4)CC2)c(C)c1,"inconclusive [inhibitor, full curve, poor fit]"
12,N#Cc1nccnc1S(=O)(=O)c1cccs1,inactive
13,CC1(C)CC(=O)C(N=Nc2ccc(C(F)(F)F)cc2[N+](=O)[O-])=C(O)C1,inactive
14,CCS(=O)(=O)Nc1ccc(-c2nnc(SCC(=O)OC)o2)cc1,"inconclusive [inhibitor, partial curve, poor fit]"
15,Cc1ccc(C(=O)NC(=S)Nc2ccc3[nH]c(=O)[nH]c3c2)cc1,"inconclusive [inhibitor, full curve]"
16,CCOc1ccc(NS(=O)(=O)c2ccc3[nH]cc(C(=O)N4CCCCCC4)c(=O)c3c2)cc1,inactive
17,COc1cc(C(=O)NC2CCN(CC(=O)NC3CCCCC3)CC2)cc(OC)c1OC,"inconclusive [inhibitor, partial curve, poor fit]"
18,Cn1c(SCc2ccccc2Cl)nc2c([nH]c3ccccc32)c1=O,inactive
19,O=c1cc(-c2ccccc2)nc(N2CCN(Cc3ccc4c(c3)OCO4)CC2)[nH]1,"inconclusive [inhibitor, full curve, poor fit]"
20,Cc1c(NP(=S)(C(C)(C)C)C(C)(C)C)c(=O)n(-c2ccccc2)n1C,"inconclusive [inhibitor, single point]"
21,O=C(NC(=S)NCc1ccco1)c1cccc(Cl)c1,inactive
22,COc1cccc(CN2C(=O)C3(SCC(=O)N3c3ccc(C(C)C)cc3)c3ccccc32)c1 (stereo not given),inactive
23,Cc1nn(Cc2ccc(Cl)cc2Cl)c(C)c1NC(=O)c1sc2ccccc2c1Cl,"inconclusive [inhibitor, full curve, poor fit]"
24,Cc1ccc(O)c(-c2cc(C(=O)NCc3ccncc3)[nH]n2)c1,"inconclusive [inhibitor, partial curve]"

row,SMILES,Potency
1,CCOC(=O)c1c(C)c(-c2ccccc2)n(CC(=O)NCCC(C)C)c1C,"inconclusive [inhibitor, full curve, poor fit]"
2,O=C(NC1CCCCC1)N(Cc1ccc(F)cc1)Cc1nc2ccccc2c(=O)[nH]1,"inconclusive [inhibitor, full curve, poor fit]"
3,CCc1sc(C(=O)Nc2ncccc2C)cc1C,inactive
4,O=C(O)[C@]1(S(=O)(=O)c2ccccc2)C[C@@H]2ON=C(c3cccc(Br)c3)[C@@H]2C1,"inconclusive [inhibitor, full curve, poor fit]"
5,O=C(Nc1cccc(F)c1)NC1CCN(Cc2ccccc2)CC1,"inconclusive [inhibitor, full curve, poor fit]"
6,Cc1ccc(C)c(CSc2nnc([C@@H](N)C(C)C)o2)c1,"inconclusive [inhibitor, full curve, poor fit]"
7,Nc1nnc(SCC(=O)Nc2ccc(N3CCOCC3)c(Cl)c2)s1,"inconclusive [inhibitor, full curve, poor fit]"
8,COc1cccc(NC(=O)c2ccc3[nH]c(C)cc(=O)c3c2)c1,inactive
9,CCCc1cc(=O)oc2cc(C)c3c(C(C)(C)C)coc3c12,inactive
10,O=C(Nc1cccc(C(=O)N2CCCCCC2)c1)c1ccco1,inactive
11,Fc1ccccc1Cn1c2[n+](c3ccc(C(F)(F)F)cc31)CCCCC2,inactive
12,COc1cccc(NC2=NC3(CCCCC3)N=C(N)N2)c1,"inconclusive [inhibitor, full curve, poor fit]"
13,CCn1c(SC(C)C(=O)N2CCOCC2)nc2sc(C)c(C)c2c1=O (stereo not given),"inconclusive [inhibitor, full curve, poor fit]"
14,CCOC(=O)C1CCCN(C/C=C/c2ccccc2)C1 (stereo not given),"inconclusive [inhibitor, full curve, poor fit]"
15,Cc1csc(NC(=O)C2CCN(S(=O)(=O)c3ccc4c(c3)oc(=O)n4C)CC2)n1,"inconclusive [inhibitor, full curve, poor fit]"
16,O=C(c1ccco1)N1CCN(CC(O)COc2ccc3oc4ccccc4c3c2)CC1 (stereo not given),"inconclusive [inhibitor, full curve, poor fit]"
17,CC[n+]1c(C)sc2sc3ccccc3c21,"inconclusive [inhibitor, single point]"
18,COc1ccc(-c2cc(C(=O)NCCc3ccc(OC)c(OC)c3)c3ccccc3n2)cc1,inactive
19,CC(=O)Nc1ccc(NC(=O)CSc2ccc(-c3cccs3)nn2)cc1,inactive
20,C=CCn1c(SCC(=O)C(C)(C)C)nnc1-c1cccs1,"inconclusive [inhibitor, single point]"
21,Cc1ccccc1NC(=O)c1ccccc1NC(=O)c1ccco1,inactive
22,CCN1CCN(CC(=O)Nc2ccc3c(c2)OCO3)C(=O)C1=O,"inconclusive [inhibitor, full curve]"
